Test results as given in patent US20100210537A1, “USE OF A DEFENSIN PEPTIDE AS A THERAPEUTIC AGENT” (priority 2007, published 2010).
Where no end group is shown, it is not given here.

Test system: RAW 264.7 (Mouse leukaemic monocyte macrophage cell line) cells
Test: Phagocytosis assay (Fluorescein-labeled Escherichia coli, flow cytometry)
Details: 10 micrograms per ml; RAW 264.7 cells, Fluorescein-labeled E. coli
Procedure: RAW 264.7 (Mouse leukaemic monocyte macrophage cell line) cells were obtained from ATCC and grown in RPMI 1640 medium containing 10% FBS. Cells were incubated in 12×75 mm tubes at 37° C. with test peptides-10 micrograms per ml-for 30 min prior to adding Fluorescein-labeled Escherichia coli bacteria as the agent to be ingested. After the cells were incubated for additional 60 min at 37° C. and allowed to ingest the Fluorescein-labeled Escherichia coli bacteria, cells were fixed with 1% paraformaldehyde. The samples were then analyzed by flow cytometry to determine the amount of phagocytosis as a function of brightness (the greater the phagocytic activity, the more fluorescence in the macrophage population). Data are reported as % positive and the mean fluorescence intensity (MFI) of positively stained cells.

Row | Substance | induction of phagocytosis as compared to the control experiment [%]
1 | Ser-Glu-Ile-Trp-Arg-Asp-Ile-Asp-Phe-OH (SEIWRDIDF-OH) [Peptide 2] | 40.0
2 | Cys-Tyr-Cys-Arg-Ile-Pro-Ala-Cys-Ile-Ala-Gly-Glu-Arg-Arg-Tyr-Gly-Thr-Cys-Ile-Tyr-Gln-Gly-Arg-Leu-Trp-Ala-Phe-Cys-Cys-OH (CYCRIPACIAGERRYGTCIYQGRLWAFCC-OH; cysteine pairing not given here) [Peptide 1] | 14.3
